Measurements taken from the RNAGym collection of RNA variant scans (doi:10.7554/elife.90254).
Read counts are not given, so values of variants with three or more changes are uncertain.

B1: LINE1-mini (parent)
chain: GGCAGAGCUCAACACAGCGUGGCAAAGUGGCUGUGGCUAGACUGCC

Variants of: B1
Assay: self-cleavage, relative activity (ratio to wild type); higher = more cleavage; in vitro, sequencing; the parent is a self-cleaving ribozyme

Question: With GGAAGAGCUCAACACAGCUUGGCACAGUGGCUGUGGCUAGAAUGCC as the variant, how does the self-cleavage read?
Answer: Its self-cleavage is 0.06.

Question: Which self-cleavage does the source give for GGCAGAGCUCAACACAGGGUGGCAAAGUGCGUGUGGCUAGACUGCC here?
Answer: Its self-cleavage is 0.03.

Question: With GGCAGAGCUCAACACAGCGUGGCAAAGUGGCGGUUGCUAGAAUGCC as the variant, how does the self-cleavage read?
Answer: Its self-cleavage is 0.12.

Question: For GGCAGAGCUCAACACAGCGUGGCAAAUUGUCUGUGCCUAGAAUGCC, which self-cleavage is on record?
Answer: The self-cleavage was 0.04.

Question: Which self-cleavage does the source give for AGAAGAACUCAACACAGCGUGGCAAAGUGGCUGUGGCUAAACAGCC here?
Answer: The self-cleavage was 1.34.

Question: For GGCAGAGCUCAACACAGAGUGGCAAAGUGGCUGUGGCUGCACUGCC, which self-cleavage is on record?
Answer: The self-cleavage was 0.02.

Question: For GGCAGAGCUACACACAGCGUGGCAAAGUGGCUGUGGCUGGACUUCC, which self-cleavage is on record?
Answer: Its self-cleavage is 0.04.

Question: Which self-cleavage does the source give for GGCAGGGCUCAACACAGCGUGGCGUAGUGGCUGUGGCUAGACUGCG here?
Answer: Its self-cleavage is 0.22.

Question: For GGCAGAACGCAACACAGCGUGGCAUAGUGGCUGUGGCUAUACUGCC, which self-cleavage is on record?
Answer: Its self-cleavage is 0.08.

Question: Which self-cleavage does the source give for AGCAGAGCUCAACCCAGCGUGGCAAAGUGGGUGUGACUAGAUUGCC here?
Answer: Its self-cleavage is 0.01.

Question: For GGCAGAGCUCAAAACAGAGUUGCAAAGUGGCUGUGGCUAGACUGCC, which self-cleavage is on record?
Answer: Its self-cleavage is 0.09.

Question: For GGCAGUGCUCGACACAGCGUCGCAAAGUGGCUGUGGCUAGACUGCC, which self-cleavage is on record?
Answer: The self-cleavage was 0.01.

Question: For GGCAGAGCCGAUCACAGCGUGGCAAAGGGGCUGUGGAGAGACUGCC, which self-cleavage is on record?
Answer: The self-cleavage was 0.

Question: With GGCAGAGCUCAACCUAGCAUGGCAAAGUGGCUGUGGCUAGACUGCC as the variant, how does the self-cleavage read?
Answer: The self-cleavage was 0.08.

Question: For GGCUGAGCUCAACACAGCGAGGUAAAGUGGGUGUGGAUCGACUGCC, which self-cleavage is on record?
Answer: The self-cleavage was 0.

Question: Which self-cleavage does the source give for GGCAGAGCUCGACAAAGCGUCGCAAAGUGCUUGAGGCUAGACUGCA here?
Answer: Its self-cleavage is 0.02.

Question: With GGCAGAGCUCAACACAGCGUGCCAGAGUGGCUGUGGCGAGACUGCC as the variant, how does the self-cleavage read?
Answer: The self-cleavage was 0.01.

Question: For GGCAGAGCUCAACACACAGUGGCAAAGUCGCCGUGGCGAGACCGCC, which self-cleavage is on record?
Answer: Its self-cleavage is 0.06.

Question: With GGCAAAGGUCAAUAAAGCGUGGCAAAGUGGCUGUGGCUAGACUGCC as the variant, how does the self-cleavage read?
Answer: Its self-cleavage is 0.1.

Question: For GACAGAGCUCAACACAGCGUGGCAAAGUGGCUGUGGCAAGACCGCC, which self-cleavage is on record?
Answer: Its self-cleavage is 0.34.

Question: With GGCAGAGCCCAACACAGCCUGACAAAGUCGCUGUGGGUAUACUGUC as the variant, how does the self-cleavage read?
Answer: Its self-cleavage is 0.

Question: Which self-cleavage does the source give for GGCAGAGCUCAACACAGCGUGGCAGGGUGGCUAUGGCUAGACUGCC here?
Answer: The self-cleavage was 0.02.

Question: For AGCAGAGCUCAACACAGCGUGUUAAUGUGGCUGUGGCUAGACUGCC, which self-cleavage is on record?
Answer: The self-cleavage was 1.09.

Question: For GGCAGAGAUCAACACAGCAUGGCAAAGUGGCUGUGUCUAGACUGCC, which self-cleavage is on record?
Answer: The self-cleavage was 0.57.

Question: For GGCAGAGCUAAACACAGCGUGGCAAAGCGGUUGUUACUAGACUGCC, which self-cleavage is on record?
Answer: Its self-cleavage is 0.02.

Question: For GGCAGAGCUUAACACGGCGUGGCAAAGUGGCUAUGGCUAGACUGCC, which self-cleavage is on record?
Answer: Its self-cleavage is 0.05.

Question: Which self-cleavage does the source give for GGCAGCGCUCAACACAGCGUGGGAAAGUGGUUUUGGCCUGACUGCC here?
Answer: The self-cleavage was 0.02.

Question: For GGCAGAGCUCUACACAGCGUGGCAAAGCAGCUGUGGCUAGACUGCC, which self-cleavage is on record?
Answer: The self-cleavage was 0.1.

Question: Which self-cleavage does the source give for GUCAGGGCUCAACACAGUGUGGCAAAGUGGCUGUGGCUAGACUGCC here?
Answer: The self-cleavage was 0.08.

Question: Which self-cleavage does the source give for GGGAGAGCUCAACAGAGCGUGGCAAAGUGGCUGUGGCCAGACUGCC here?
Answer: The self-cleavage was 0.1.

Question: Which self-cleavage does the source give for GGCAGAGCUCAACACAGCGUGCCGAAGUGGCUGUGGAUAGACUCCC here?
Answer: Its self-cleavage is 0.05.

Question: For GUCAGAGCUCAACACAGCGUGGCAAAGUGUCUGUGGCUAGACUUCC, which self-cleavage is on record?
Answer: Its self-cleavage is 0.01.

Question: With GGCAGCGCUCAACAGAGCGUGGCAAAGUGGCUGUGGCUAGUCUGCC as the variant, how does the self-cleavage read?
Answer: Its self-cleavage is 0.02.

Question: With GGCAGAUCUAAACACAGCAUUUCAAAGUGGCUGUGGCUAACCUGCA as the variant, how does the self-cleavage read?
Answer: The self-cleavage was 0.01.

Question: For AGCAGAGCUCAACACAGCGUGGCAAACUGGCUCUGGCUAGACUGCC, which self-cleavage is on record?
Answer: Its self-cleavage is 0.05.

Question: With GGCAUUGCUGAACACAGCGUGGCAAAGUGGCUGUGGCUAGACUGCC as the variant, how does the self-cleavage read?
Answer: The self-cleavage was 0.05.

Question: Which self-cleavage does the source give for GGCAGUGCUCAACACAGCGUGGCAAAGUGGAUGUGCCUAGACUUCC here?
Answer: The self-cleavage was 0.

Question: With GGCAGAGCUCAACACAGGGUGCCAAAGUGGCUGUUGCUGGACUGCC as the variant, how does the self-cleavage read?
Answer: The self-cleavage was 0.07.

Question: With GGCAGAGCUCAACACAACGUGGCAAAGUUGCUGUGGCUAGACUGGC as the variant, how does the self-cleavage read?
Answer: Its self-cleavage is 0.02.

Question: For GACAGAGCUCAACACAGCGUGGCAAAGCGGCUGUGACUAGACUGCC, which self-cleavage is on record?
Answer: Its self-cleavage is 0.13.

Question: With GGCAGAACUUAACACAGUGUGGCAAAGUGGCUGUGGCUUGACUGCC as the variant, how does the self-cleavage read?
Answer: The self-cleavage was 0.04.

Question: For GGCAGCGCUCAACACAGCGUGGCAAAGUGGCUGUGGCUGGACCGCC, which self-cleavage is on record?
Answer: The self-cleavage was 0.02.

Question: With GCCAGAGCACAACACAGCGUGGCACAGUGGCUGUGGCUCGACAGCC as the variant, how does the self-cleavage read?
Answer: The self-cleavage was 0.08.

Question: Which self-cleavage does the source give for GGCAGAAAAUAACGCAGCGUGGCAAAGUGGCUGCGGCUCGACUGCC here?
Answer: The self-cleavage was 0.02.

Question: With GGCAGAGCUCAGCACAGCGUAGCAAAGUGGCUGUGGAUAGACUGCC as the variant, how does the self-cleavage read?
Answer: The self-cleavage was 0.14.

Question: Which self-cleavage does the source give for GGCAGAGCUCAAAACAGCGUGGCAAAGUGGCUGUAGCCAGACUGCC here?
Answer: Its self-cleavage is 0.1.

Question: For GGCAGAGCUCAACACAGCGAGGCAAAUUGGCUGUGUCUAGACUGCC, which self-cleavage is on record?
Answer: The self-cleavage was 0.03.

Question: For GGCAGAGCUCAACACAGCGUGGCAAAAUGGCUCUAGCUAGACUGCC, which self-cleavage is on record?
Answer: Its self-cleavage is 0.05.

Question: With GGCAGAGCUCAACCCAGAGUGGCAAAGGCGCAGUGGUUAGACUGCC as the variant, how does the self-cleavage read?
Answer: Its self-cleavage is 0.

Question: For GGCAGAGAUCAACACAGCGUGGCAAUGGGGCGGUGGCUAGACUGCC, which self-cleavage is on record?
Answer: Its self-cleavage is 0.06.

Question: For GGCAGAGCUCAACACAGCGUGUCAACGUGGCUGUGGCUAGAGUGCC, which self-cleavage is on record?
Answer: Its self-cleavage is 0.09.

Question: Which self-cleavage does the source give for GGUAGAGUUCAACACAGCGUGGCAAAGUGGCUUUGGGUAGACUGCC here?
Answer: The self-cleavage was 0.1.

Question: For GGCAUAGCUCAACACAGCAUGGCAAAGUGGCUGUCGCUAGACUGCG, which self-cleavage is on record?
Answer: Its self-cleavage is 0.04.

Question: For UGCAGAGGUCAGCACAGCGUGGCAAAGUGGCUGUGGCUAGACUGGA, which self-cleavage is on record?
Answer: Its self-cleavage is 0.01.

Question: For GGCAGAGCCCAACCCAGGGUGGCACAGUGGCUGUGUCUAGACUGCC, which self-cleavage is on record?
Answer: The self-cleavage was 0.01.

Question: Which self-cleavage does the source give for GGCAGAGCUCAACACAGCGUGGCAAAGUCUCUGUGGGUAGAGUGCC here?
Answer: The self-cleavage was 0.17.
